Test results: article PMC12040169 (PLOS Biology, 2025)
This is one part of the list.

Tested on: T1, C. trachomatis L2/434/Bu expressing GFP (CTL2-GFP)
T1 construct: L2/434/Bu GFP intracellular growth in HeLa cells
Design: species or system HeLa; C. trachomatis total inclusion area by high-content imaging, normalised to DMSO
Details: total inclusion area; 28.5 h, 10 µM; inhibitor
Summary of the method: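 Imaging read-out: GFP inclusions and Hoechst nuclei captured by high-content imaging after fixation. Inclusion area/number = chlamydial growth; nuclei count = host cell viability. MIC calculated per earlier method.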

Row | Compound | % of control remaining
1 | FC(F)(F)c1ccnc(OCCOc2ccc(Cl)cc2)n1 [CBK115838] | 105.99
2 | Cc1ccncc1C(=O)Nc1c(C)noc1C [CBK200393] | 96.9877
3 | CC(C)c1ccc(-c2cncc(NCc3cccc(Cl)c3)n2)cc1 [CBK065347] | 99.2549
4 | Cc1ccc2nc(C(=O)NCCSc3nccn3C)cn2c1 [CBK281397] | 101.898
5 | CCn1c(SCC(=O)N2CCN(c3ccccc3)CC2)nnc1-c1ccc(N)cc1 [CBK265786] | 72.3016
6 | CC(C)(C)OC(=O)NCCNCc1cc(F)cc(F)c1 [CBK056698] | 94.9236
7 | COc1cc(OC)cc(-c2c(C)ncnc2OC)c1 [CBK306765] | 57.2224
8 | O=C(CN1CCC(c2ccc(F)cc2)CC1)N1CCCC1 [CBK283502] | 80.1604
9 | Cn1ncc2c1CCCN(C(=O)COc1ccc(F)cc1F)C2 [CBK285229] | 81.4635
10 | CNS(=O)(=O)c1ccc(C(C)NC(=O)N2CCN3CCC2CC3)cc1 (stereo not drawn) [CBK304765] | 36.2835
11 | COc1cccc(C(=O)N2CCC[C@@H](N)[C@@H]2c2ccccc2F)c1 [CBK283457] | 109.153
12 | CC1(C)CC(=O)C=C(C(=O)NCc2ccc(OC3CCNCC3)cc2)O1 [CBK038948T] | 91.2543
13 | Cc1cc(C)c2c(n1)nn1c(C)c(CCC(=O)O)c(C)nc21 [CBK265892] | 97.1209
14 | Cc1nc(-c2cc3c(s2)CCN(CC(O)Cn2cccn2)C3)cs1 (stereo not drawn) [CBK304458] | 92.6823
15 | O=C1COc2ccccc2C/C=C/CC2(CCN(Cc3cncnc3)CC2)CN1 [CBK292130] | 56.0726
16 | O=C(NC1CC2(CCCCC2)Oc2ccccc21)C1CCOC1 (stereo not drawn) [CBK283760] | 104.296
17 | COC(=O)[C@@H]1Cc2ncn(Cc3ccc(Cl)cc3)c2CN1C(=O)c1ccc(OC)cc1 [CBK288983] | 109.018
18 | O=C(CC1CC1)NCc1ccc(-c2csnn2)cc1 [CBK149287] | 101.096
19 | CCOC(=O)c1nc2c(n1C)[C@H]1[C@H](O)[C@H](O)C[C@H]1C1(CCC1)N2 [CBK303241] | 79.6242
20 | O=C(O)c1ccc(NC(=O)c2cn(-c3ccccc3)nc2-c2cc3ccccc3o2)cc1 [CBK266587C] | 108.644
21 | Cc1sc2nc(SCc3nc(-c4ccccc4)no3)n(-c3ccccc3)c(=O)c2c1C [CBK266492] | 99.9968

Row | Compound | % of control remaining
22 | O=S(=O)(c1ccc(Cl)s1)N1CCN(Cc2ccc3c(c2)OCO3)CC1 [CBK270324] | 102.379
23 | C[C@@H]1CN[C@@H](C)CN1Cc1cc(NS(=O)(=O)c2ccccc2Cl)cc2ccoc12 [CBK107211T] | 100.455
24 | Cc1nncn1-c1ccc(Cl)cc1C(=O)c1ccccc1Cl [CBK012372] | 87.9392
25 | Cc1ccc(CNC(=O)C2(c3ccccc3)CCCC2)cc1F [CBK161529] | 110.378
26 | OCC(CO)(CO)NCc1ccc(-c2ccccc2)cc1 [CBK268742C] | 123.54
27 | C/C(=N\NC(=O)C(C)Sc1ncccn1)C(C)(C)C (stereo not drawn) [CBK020243] | 106.891
28 | O=C(Cc1ccn[nH]1)N1CC(O)CC1c1cc(F)ccc1F (stereo not drawn) [CBK304872] | 51.1172
29 | COc1ccc(CCNc2ncnc3c2cnn3-c2ccc(C)cc2C)cc1OC [CBK294448] | 90.1571
30 | COc1cc2cc3c(N)c(C(=O)NCc4cccs4)sc3nc2cc1OC [CBK120215] | 111.017
31 | COC(=O)CCn1c(=O)c2c(nc3oc(C(C)(C)C)cn32)n(C)c1=O [CBK306034] | 46.3322
32 | Cc1ccc(-c2cc(C(=O)O)c3cc4c(C(=O)O)cc(-c5ccc(C)o5)nc4cc3n2)o1 [CBK264342] | 64.2858
33 | CCCNC(=O)c1sc(Nc2ccc(Cl)cn2)nc1C [CBK287850] | 80.4482
34 | COc1ccc(-c2cn3cccnc3n2)cc1NC(=O)c1ccccc1 [CBK287296] | 108.709
35 | Cc1cc(F)ccc1NC(=O)c1n[nH]cc1Cl [CBK288020] | 64.8058
36 | Cc1cccc(Nc2ncnc3ccccc23)c1 [CBK072827] | 103.045
37 | Cn1c(=S)[nH]c2c(-c3ccccc3)c[nH]c2c1=O [CBK288488] | 60.0129
38 | Cc1cc(C)n(CC(=O)NCC2CCCO2)c(=O)c1C#N (stereo not drawn) [CBK269926] | 87.4455
39 | COc1ncccc1C(=O)N1CCc2ccccc2C1 [CBK200336] | 91.85
40 | Nc1cccc(-c2cc(Nc3ccc(CCO)cc3)ncn2)c1 [CBK090766] | 100.216
41 | O=C(NCCN1CCCCC1)C1CC(=O)N(Cc2ccccc2)C1 (stereo not drawn) [CBK305150] | 44.5346
42 | Cc1cc(C[C@@H]2COC[C@H]2NCc2ccc(C(C)C)cc2)on1 [CBK284884] | 114.649

Row | Compound | % of control remaining
43 | Cc1nn(C)c(Cl)c1S(=O)(=O)Nc1ccc2cc(Br)cnc2n1 [CBK073892] | 99.5361
44 | O=C(CSc1nccc2ccccc12)NC1CCCOC1 (stereo not drawn) [CBK282677] | 118.947
45 | CC1CCc2c(sc3ncnc(NCCc4nc5ccccc5[nH]4)c23)C1 (stereo not drawn) [CBK268809] | 95.4512
46 | S=C(NCCC(c1ccccc1)c1ccccc1)NC1CCCCC1 [CBK264007] | 71.3991
47 | CC(C)C(=O)NC(c1ccco1)c1ccc2cccnc2c1O (stereo not drawn) [CBK263277] | 96.3186
48 | CCOc1ccccc1OCc1nn2c(-c3ccncc3)nnc2s1 [CBK268535] | 103.772
49 | C=C(C)Cn1c(SC(C)C)nnc1-c1cccnc1 [CBK200073] | 84.4281
50 | CCC1CCc2c(sc(NC(=O)c3cc(-c4ccc(Cl)s4)nc4ccccc34)c2C(N)=O)C1 (stereo not drawn) [CBK262646] | 82.6484
51 | COc1ccc(C(NC(=O)C2CCN(C(=O)C(C)(C)C)CC2)c2cnccn2)cc1 (stereo not drawn) [CBK059791] | 67.555
52 | CS(=O)(=O)c1ccc2nc(Nc3nc4c(F)cccc4s3)sc2c1 [CBK287478] | 89.1099
53 | O=C(Cc1ccccc1)NC(Cc1ccc(Cl)cc1)C(=O)O (stereo not drawn) [CBK286976] | 32.9437
54 | Cc1ccc2c(c1)C(=O)CC1(CC3CCC1N3C(=O)C(C)C)O2 (stereo not drawn) [CBK284468] | 114.195
55 | CC(C)C(=O)N1CCC2(C/C=C/C[C@H]3COCC[C@H]3NC(=O)CNC2=O)CC1 [CBK292157] | 95.8296
56 | CCN(CC)S(=O)(=O)c1cc(C(=O)Nc2ccccc2C(=O)O)c(Cl)cc1Cl [CBK265731] | 102.996
57 | CSCCC(=O)NC1CCCc2nc(N3CCC(CO)CC3)ncc21 (stereo not drawn) [CBK306782] | 38.7578
58 | CCOC(=O)c1cnn(C2CCCN(Cc3ccsc3)C2)c1 (stereo not drawn) [CBK305112] | 121.917
59 | COc1ccc(C(=O)NNC(=O)c2cc(OC)cc(OC)c2)cc1 [CBK262616] | 106.746
60 | COc1ccc(CNC(=O)c2cn[nH]c2-c2ccccc2)c(OC)c1 [CBK288057] | 81.3232
61 | COc1ccc(-c2csc(Nc3ccc(N)cc3)n2)cc1OC [CBK074456] | 77.9906
62 | CNC(=O)NC(=O)CN1CCC(CNc2ncccc2C#N)C1 (stereo not drawn) [CBK306126] | 36.2534
63 | CC(C)NC(=O)c1ccccc1Br [CBK026505] | 83.7934

Row | Compound | % of control remaining
64 | CCCC(=O)NCc1ccc(-c2cc(CN(C)C)n(C)n2)cc1 [CBK282007] | 75.7189
65 | O=C(CC1S/C(=N/N=C/c2ccc(-c3cc([N+](=O)[O-])ccc3Cl)o2)NC1=O)Nc1ccccc1 (stereo not drawn) [CBK264592] | 108.662
66 | COc1ccc(CCCC(=O)NC2CCCCC2C)cc1 (stereo not drawn) [CBK026124] | 112.271
67 | Cn1nccc1CCNC(=O)c1cccc(S(=O)(=O)N2CCCCC2)c1 [CBK304363] | 120.976
68 | O=C(O)C1C2C=CC3(CN(C/C=C/c4ccccc4)C(=O)C13)O2 (stereo not drawn) [CBK286946] | 98.5479
69 | CCC(C)c1ccccc1NC(=O)c1cc(=O)[nH]c2ccccc12 (stereo not drawn) [CBK297516] | 83.2217
70 | CC(C)CC(=O)Nc1nc(OCC(F)(F)F)cnc1-c1ccc(Cl)cc1Cl [CBK145356] | 119.719
71 | COc1cc(C(c2c[nH]c3ccccc23)c2c[nH]c3ccccc23)ccc1OCC(=O)O [CBK265717] | 107.843
72 | CC(=O)Nc1ccc([C@@H](O)[C@H]2COCC(=O)N2Cc2ccc(C(F)(F)F)cc2)cc1 [CBK289678] | 110.86
73 | Cc1cccc(C)c1NC(=O)Cn1nnc(-c2ccc(CN3CCC(C)CC3)cc2)n1 [CBK121194] | 94.0353
74 | O=C1c2ccccc2NC(C(=O)O)(c2ccccc2)N1c1ccccc1Cl (stereo not drawn) [CBK287169] | 103.207
75 | Cc1nn(CC(=O)NC2CCC2)c(=O)c2cc3ccsc3n12 [CBK284103] | 93.7824
76 | CC1=C/C(=C(\C#N)C(N)=O)NC(c2ccccc2O)=N1 [CBK019764] | 104.117
77 | O=S(=O)(Nc1nnn[nH]1)c1ccc(-c2cc(C(F)(F)F)on2)s1 [CBK062393] | 89.3849
78 | CC[C@H](Cn1ncc2ccccc2c1=O)NC(=O)c1ccc2c(c1)Sc1ccccc1O2 [CBK286173] | 110.7
79 | Cc1ccc2nc(-c3ccccc3)cc(C(=O)NCCCn3ccnc3)c2c1 [CBK268526] | 119.833
80 | FC(F)(F)c1ccnc(OCc2cccnc2)n1 [CBK115902] | 104.27
81 | Cc1nc(NC(=O)CN2CCN(c3cccc(Cl)c3)CC2)sc1C [CBK305902] | 11.0568
